# In the supplement of paper PMC11876631:
# Changes are numbered by the printed parent chain. Numbers in names are those of the source. ± gives the standard deviation of the averaged measurements. Laboratory Escherichia coli strains with one amino-acid change in an essential protein, pooled on minimal glucose agar with carbenicillin or gentamicin at twice the control MIC (plus kanamycin and chloramphenicol for the plasmids), 48 h. Fold change of barcode share against drug-free plates; higher = less susceptible. Active = above 20 in both replicates (the paper's putatively resistant). '<' = one read or none on drug, '>' = one read or none on a drug-free plate. Shares are relative, so most strains fall below 1 when a few take over. Listed are strains with at least 15 reads on both drug-free plates, and hits; most hits rest on fewer reference reads. Replicate rank correlation about 0.5. Edits are read from barcodes.
# B1: asnS I75Q (protein)
# chain: MSVVPVADVLQGRVAVDSEVTVRGWVRTRRDSKAGISFLAVYDGSCFDPVQAVINNSLPNYNEDVLRLTTGCSVQVTGKVVASPGQGQQFEIQASKVEVAGWVEDPDTYPMAAKRHSIEYLREVAHLRPRTNLIGAVARVRHTLAQALHRFFNEQGFFWVSTPLITASDTEGAGEMFRVSTLDLENLPRNDQGKVDFDKDFFGKESFLTVSGQLNGETYACALSKIYTFGPTFRAENSNTSRHLAEFWMLEPEVAFANLNDIAGLAEAMLKYVFKAVLEERADDMKFFAERVDKDAVSRLERFIEADFAQVDYTDAVTILENCGRKFENPVYWGVDLSSEHERYLAEEHFKAPVVVKNYPKDIKAFYMRLNEDGKTVAAMDVLAPGIGEIIGGSQREERLDVLDERMLEMGLNKEDYWWYRDLRRYGTVPHSGFGLGFERLIAYVTGVQNVRDVIPFPRTPRNASF
# B2: asnS I75D (protein)
# chain: B1 chain with Q75D
# B3: asnS M249Q (protein)
# chain: B1 chain with Q75I, M249Q
# B4: nadA V137A (protein)
# chain: MSVMFDPDTAIYPFPPKPTPLSIDEKAYYREKIKRLLKERNAVMVAHYYTDPEIQQLAEETGGCISDSLEMARFGAKHPASTLLVAGVRFMGETAKILSPEKTILMPTLQAECSLDLGCPVEEFNAFCDAHPDRTVAVYANTSAAVKARADWVVTSSIAVELIDHLDSLGEKIIWAPDKHLGRYVQKQTGGDILCWQGACIVHDEFKTQALTRLQEEYPDAAILVHPESPQAIVDMADAVGSTSQLIAAAKTLPHQRLIVATDRGIFYKMQQAVPDKELLEAPTAGEGATCRSCAHCPWMAMNGLQAIAEALEQEGSNHEVHVDERLRERALVPLNRMLDFAATLRG
# B5: asnS L250A (protein)
# chain: B1 chain with Q75I, L250A
# B6: nadA V138A (protein)
# chain: B4 chain with A137V, V138A
# B7: nadA L224A (protein)
# chain: B4 chain with A137V, L224A
# B8: asnS L250W (protein)
# chain: B1 chain with Q75I, L250W
# B9: nadA V225A (protein)
# chain: B4 chain with A137V, V225A
# B10: nadA V234A (protein)
# chain: B4 chain with A137V, V234A
# B11: nadA V234Q (protein)
# chain: B4 chain with A137V, V234Q
# B12: nadA V234D (protein)
# chain: B4 chain with A137V, V234D
# Target: Escherichia coli (laboratory strain)
# Assay: barcode share on antibiotic plates over drug-free plates; higher = less susceptible
# Settings: antibiotic: carbenicillin; 2× MIC (3.1 µg/mL)
# Description: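 A pool of E. coli strains, each edited to carry one amino-acid change in an essential protein, was grown for 48 h on minimal glucose agar with or without antibiotic; strain barcodes were sequenced; mean of two replicates.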
row,Protein,fold change of barcode share
1,B1,0.389 ± 0.25
2,B2,0.277 ± 0.17
3,B3,0.4 ± 0.043
4,B4,0.678 ± 0.42
5,B5,0.454 ± 0.043
6,B6,0.3 ± 0.094
7,B7,0.655 ± 0.29
8,B8,0.287 ± 0.026
9,B9,0.331 ± 0.091
10,B10,1.28 ± 0.94
11,B11,1.01 ± 0.72
12,B12,1.38 ± 0.089

# Same assay, conditions: antibiotic: gentamicin; 2× MIC (MIC 0.45 µg/mL)
row,Protein,fold change of barcode share
1,B1,0.00992 ± 0.0014
2,B2,< 0.00391
3,B3,< 0.00538
4,B4,0.0689 ± 0.014
5,B5,0.00977 ± 0.0017
6,B6,0.288 ± 0.26
7,B7,0.0668 ± 0.037
8,B8,0.0127 ± 0.0074
9,B9,0.0469 ± 0.05
10,B10,0.052 ± 0.063
11,B11,0.0268 ± 0.021
